# According to publication PMC4336329 (PLoS ONE, 2015):
# The campaign covered roughly 310,000 compounds. About 2,200 (0.71%) showed an effect of 50% or more. The effect is printed as a negative number. The list shows a part of the results.
# Target: human ether-à-go-go-related gene (hERG) potassium channel (human, UniProt Q12809)
# Experiment: primary screen, population patch clamp on CHO cells stably expressing hERG
# Sequence of human ether-à-go-go-related gene (hERG) potassium channel (Q12809 whole entry, looked up): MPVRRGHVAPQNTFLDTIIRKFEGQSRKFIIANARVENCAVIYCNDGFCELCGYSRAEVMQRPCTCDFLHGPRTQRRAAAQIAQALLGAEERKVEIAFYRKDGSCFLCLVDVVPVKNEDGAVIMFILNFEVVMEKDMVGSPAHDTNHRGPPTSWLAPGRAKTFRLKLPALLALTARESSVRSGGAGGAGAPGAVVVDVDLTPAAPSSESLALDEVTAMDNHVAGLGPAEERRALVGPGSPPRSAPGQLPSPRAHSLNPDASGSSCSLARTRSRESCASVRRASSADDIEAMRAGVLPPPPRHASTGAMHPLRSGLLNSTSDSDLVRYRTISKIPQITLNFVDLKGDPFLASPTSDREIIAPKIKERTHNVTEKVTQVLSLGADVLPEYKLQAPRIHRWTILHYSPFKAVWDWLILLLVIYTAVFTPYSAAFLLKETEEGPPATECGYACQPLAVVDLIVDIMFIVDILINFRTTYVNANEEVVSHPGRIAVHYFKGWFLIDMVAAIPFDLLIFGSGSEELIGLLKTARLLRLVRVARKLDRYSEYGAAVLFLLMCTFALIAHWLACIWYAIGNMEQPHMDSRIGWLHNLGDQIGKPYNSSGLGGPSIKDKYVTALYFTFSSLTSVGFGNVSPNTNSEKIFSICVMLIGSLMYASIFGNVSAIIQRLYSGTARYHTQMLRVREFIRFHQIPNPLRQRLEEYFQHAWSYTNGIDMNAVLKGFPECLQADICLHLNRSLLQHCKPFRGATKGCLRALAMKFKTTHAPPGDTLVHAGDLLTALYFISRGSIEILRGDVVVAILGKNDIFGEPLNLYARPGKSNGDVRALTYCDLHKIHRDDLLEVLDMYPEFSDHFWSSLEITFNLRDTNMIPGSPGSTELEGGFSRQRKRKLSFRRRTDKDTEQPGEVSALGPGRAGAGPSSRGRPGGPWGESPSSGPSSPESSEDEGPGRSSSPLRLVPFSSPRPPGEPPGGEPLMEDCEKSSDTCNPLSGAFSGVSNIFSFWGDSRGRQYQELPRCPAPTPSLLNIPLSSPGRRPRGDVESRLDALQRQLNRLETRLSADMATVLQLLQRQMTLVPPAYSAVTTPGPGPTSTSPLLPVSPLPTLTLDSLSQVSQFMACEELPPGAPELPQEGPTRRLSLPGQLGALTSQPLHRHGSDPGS
row,SMILES,"hERG current change (%, negative = inhibition) at 1uM"
1,Cc1cccc(C)c1NC(=O)CNC(=O)C12CC3CC(CC(O)(C3)C1)C2,17.5%
2,O=C(NCC(=O)N(c1cccc(F)c1)C(C(=O)NC1CCCC1)c1ccco1)c1ccco1 (stereo not drawn),14.1%
3,CCN(c1ccc(NC(=O)COC(=O)c2ccc(C)s2)cc1)C(C)C,13.2%
4,CCC(C)C(NC(=O)C1CCC(C)CC1)C(=O)NCc1ccccn1 (stereo not drawn),2.86%
5,COc1ccccc1/C=C/C(=O)c1ccc(NC(C)=O)cc1,10.7%
6,CCOC(=O)Cn1c(COc2ccccc2OC)[n+](C)c2ccccc21,10.7%
7,COc1ccccc1NC(=O)CSc1nnc(-c2ccncc2)o1,12.2%
8,Cc1ccc(C(=O)Nc2cc([N+](=O)[O-])ccc2C)cc1,0.416%
9,Cc1ccc(NS(=O)(=O)c2cc(C(=O)O)ccc2Cl)c(C)c1,6.76%
10,Cl.Nc1cc(Cl)ccc1N1CCCC1,8.35%
11,O=C(Nc1cccc([N+](=O)[O-])c1)c1ccc2nc(N3C(=O)CCC3=O)sc2c1,-1.85%
12,Cc1cc(N/C=C/C(=O)c2cccc3ccccc23)no1,11.3%
13,COc1cc(C(=O)OCC(=O)N2c3ccccc3NC(=O)C2(C)C)ccc1OCC(C)C,9.03%
14,O=C(c1ccc2nc(-c3ccco3)c(-c3ccco3)nc2c1)N1CCC2(CC1)OCCO2,-4.65%
15,CCC(C(=O)NC1CC1)n1nc(C)c2c(C)n(-c3ccc(C)cc3)nc2c1=O (stereo not drawn),9.43%
16,COc1cccc(CNC(=O)CCCn2nc(C)c3c(C)n(-c4ccccc4)nc3c2=O)c1,6.05%
17,NS(=O)(=O)c1ccc(CCNC(=O)CN2CCN(Cc3cccc(C(F)(F)F)c3)CC2)cc1,16.6%
18,Cc1cc(C)c(NC(=O)COC(=O)Cc2ccsc2)c(C)c1,15%
19,c1ccc(-c2csc(N3CCCCCC3)n2)cc1,4.29%
20,CCCn1c(NCc2ccccn2)nc2ccccc21,2.45%
21,O=C(/C=C/c1ccccn1)c1cc(Br)ccc1O,-6.34%
22,CSCCCNC(=O)c1ccccc1OC1CCN(S(C)(=O)=O)CC1,11.6%
23,COc1ccc(CN=C(C#N)C2=C(O)c3ccccc3C2=O)cc1,9.81%

row,SMILES,"hERG current change (%, negative = inhibition) at 1uM"
1,COC(=O)c1cn(NC(=O)c2cccc(OC)c2)c(=O)c2ccccc12,19.7%
2,O=C(Cc1ccc(Cl)cc1)NCCS(=O)c1ccc(Cl)cc1 (stereo not drawn),-2.89%
3,Cc1c(Cl)ccc(S(=O)(=O)NCCCn2ccnc2)c1Cl,12.2%
4,COC1CCN(C(=O)CC2C(=O)NCCN2CC(C)(C)C)CC1 (stereo not drawn),15.2%
5,COc1ccc(NC(=O)CC(C)(C)C)c([N+](=O)[O-])c1,2.52%
6,CC(C)NC(=O)C(=O)NCCc1ccc(Cl)cc1,12.5%
7,Cn1nc(-c2ccc(C(=O)N3CCN(Cc4ccccc4)CC3)cc2)c2ccccc2c1=O,-6.27%
8,O=C(c1ccc(Cn2c(=S)[nH]c3ccc(N4CCOCC4)cc3c2=O)cc1)N1CCN(c2ccc(F)cc2)CC1,21.7%
9,CC1(C)CC(=O)C(C=Nc2ccccc2C(=O)O)=C(O)C1,-0.0852%
10,O=C(c1cccc([N+](=O)[O-])c1)N1CCN(S(=O)(=O)/C=C/c2ccccc2)CC1,-39.7%
11,CCn1c(SCC(=O)NCc2ccccc2)nnc1-c1cccnc1,16.7%
12,COc1ccc(NC(=O)CN2CCN(c3ccccc3F)CC2)cc1,6.34%
13,COc1ccccc1-c1nnc(SCC(=O)N2CCOCC2)n1-c1ccccc1,4.39%
14,CCc1ccc(-c2cc(C(=O)NN3CCOCC3)c3ccccc3n2)cc1,6.69%
15,CN(C)C(=O)COC(=O)c1cccc(S(=O)(=O)N2CC3(C)CC2CC(C)(C)C3)c1 (stereo not drawn),7.59%
16,CC(C)N(Cc1nccn1C)C(=O)CC1C(=O)NCCN1Cc1ccccc1C(F)(F)F (stereo not drawn),7.62%
17,CCn1c(SCc2ccc(F)cc2)nnc1-c1nn(-c2ccccc2)ccc1=O,-8.07%
18,CS(=O)(=O)N(CC(=O)N/N=C/c1ccccc1C(=O)O)c1cccc(Cl)c1Cl,3.23%
19,O=C(Nc1cccc([N+](=O)[O-])c1)N1CCc2ccccc2C1,2.06%
20,Cc1ccc(NC(=O)CN(C)S(=O)(=O)c2cnc[nH]2)cc1C,10.2%
21,O=S(=O)(c1ccccc1)N1CN(Cc2ccc(F)cc2)c2nc3ccccc3nc21,-3.43%
22,CCC(CO)NCc1ccccc1OC(C)C.Cl (stereo not drawn),11.2%
